# Experimental data published in PubChem BioAssay AID686978 (National Center for Advancing Translational Sciences (NCATS), 2013).
# “And” between values parts separate entries of the source, which are not always exact repeats. Equal values may be shown once. In all, about 420,000 compounds went through this assay and about 64,000 (15%) were called active. Inconclusive results, whose numbers are uncertain, are shown with a selection of clear calls. Calls come from the whole dose curve; as a rule, active = well fitted inhibition curve with a large enough effect; inconclusive = small, poorly fitted or top-dose-only effect; inactive = flat fitted curve, though single readings scatter. No potency is given beside an inconclusive call; the fits are too rough.
# Test: qHTS for Inhibitors of human tyrosyl-DNA phosphodiesterase 1 (TDP1): qHTS in cells in absence of CPT; note: nearly all actives have a fitted effect of over 55% in size
# Details: DT40 Tdp1-/- hTDP1 cells, no CPT, ATP luminescence, 48 h; activity change, negative = growth inhibition: at 46.2 µM (top of the series) unless noted
# In short: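 Readout: luminescence from CellTiter-Glo after 30 min in the dark at RT. Cells: DT40 Tdp1-/- with stable hTDP1, 400/well. Exposure: compounds alone, ≥48 hr, 37 °C.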
# % is set by controls: 0 for no effect and ±100 for the full control effect; potency is the fitted concentration of half-maximal effect; tags give direction and shape of the fitted curve.
SMILES,Potency,"activity change, negative = growth inhibition"
O=C1C(=O)N(c2ccccn2)C(c2ccc(F)cc2)/C1=C(/O)c1ccc(Br)cc1 (centres undefined),"inconclusive [inhibitor, single point]",–
O=C(Nc1ccc2c(c1)OCCO2)C(c1ccnc2ccccc12)n1c(=O)c(-c2ccco2)nc2ccccc21 (centres undefined),active: 14.6 µM,–
COc1ccc(NC(=O)c2cccc(-c3ccc(O)cc3)c2)cn1,active: 20.6 µM,–
COc1ccc(OC)c(-c2csc(NC(=O)Cc3cccs3)n2)c1,–,inconclusive: -34.9% [inhibitor]
COc1ccc(S(=O)(=O)N[C@H](C(=O)N2CC[C@@]3(O)CCCC[C@H]3C2)c2ccccc2)cc1,"inconclusive [inhibitor, single point]",–
CC(C)(C)C1CCC(=NOC(=O)c2ccc(F)cc2)CC1 (centres undefined),"inconclusive [inhibitor, single point]",–
CC(C)Cn1cc(C(=O)N2CCN(c3ccccn3)CC2)c2c3ccccc3n(C)c2c1=O,"inconclusive [inhibitor, single point]",–
O=C(CNC(=O)c1ccccc1)OCC(=O)N1N=C(c2ccc(Cl)cc2)CC1c1ccco1 (centres undefined),inactive,–
Nc1nc(SCc2ccccc2)sc1C(=O)N1CCCCC1,"inconclusive [inhibitor, single point]",–
COc1ccc(N(CC(=O)N2CCN(c3cccc(Cl)c3)CC2)S(=O)(=O)c2c(C)noc2C)cc1,active: 20.6 µM and active: 18.4 µM,–
CCN(CC(=O)Nc1cccc(S(=O)(=O)N(C)c2ccccc2)c1)Cc1ccccc1,"inconclusive [inhibitor, single point]",–
Cc1ccc(Cl)cc1NC(=S)N(CCN(C)C)Cc1cccs1,"inconclusive [inhibitor, single point]",–
CCCc1cc(=O)oc2c(C)c(OC(C)C(=O)NCC(O)c3ccccc3)ccc12 (centres undefined),inactive,–
COc1ccc(Cl)cc1C(=O)OCC(=O)c1ccc[nH]1,inactive,–
CCOc1c(OC(C)=O)ccc(/C=C2\N=C(SCC)SC2=O)c1[N+](=O)[O-],inactive,–
Cc1ccc(-c2n[nH]c(=S)n2/N=C/c2c(C)[nH]n(-c3ccccc3)c2=O)cc1,"inconclusive [inhibitor, single point]",–
COc1cc(C(=O)N2CCCCCCC2)cc(OC)c1OC,"inconclusive [inhibitor, single point]",–
Cc1nc(SCC(=O)N2CCNC2=O)c2ccccc2n1,"inconclusive [inhibitor, single point]",–
CCC(=O)Nc1ccc(F)c(Cl)c1,inactive,–
CCN(CC1CCCN(CCc2cccc(F)c2)C1)C(=O)c1cc2ccccc2o1 (centres undefined),active: 18.4 µM,–
O=C(c1ccc(N2C(=O)C3C4CC(C(Br)C4Br)C3C2=O)cc1)N1CCCCC1 (centres undefined),inactive,–
COc1ccc(NC(=O)C2(C)CCN2Cc2ccccc2Cl)cc1OC (centres undefined),active: 8.2 µM,–
CC(C)c1ccc(NC2CCCN(C(=O)c3cc(C(C)C)[nH]n3)C2)cc1 (centres undefined),"inconclusive [inhibitor, single point]",–
CC(CNC(=O)Cn1ccc2cc(S(=O)(=O)N3CCCC3)ccc21)c1ccccc1 (centres undefined),active: 23.1 µM,–
Cc1cc(NC(=O)CN2CCN(C)CC2)no1,"inconclusive [inhibitor, single point]",–

SMILES,Potency,"activity change, negative = growth inhibition"
CCn1ncc(Cl)c1C(=O)NC(=S)Nc1ccccc1Br,inactive,–
O=C(Nc1ccc2oc(-c3cccc4c(Br)cccc34)nc2c1)c1cccc(Cl)c1,"inconclusive [inhibitor, single point]",–
CCOC(=O)C1=CCN(S(=O)(=O)c2cccc(Cl)c2)C1c1cccc(C)c1 (centres undefined),active: 18.4 µM,–
CCc1cccc(OCCCCNCCO)c1,"inconclusive [inhibitor, single point]",–
C(=N\N1CCN(c2ccccn2)CC1)/c1cccc2ccccc12,"inconclusive [inhibitor, single point]",–
Cc1ccc(N2C(=O)NC(NS(=O)(=O)c3ccc(C)cc3)(C(F)(F)F)C2=O)cc1 (centres undefined),"inconclusive [inhibitor, single point]",–
CCCCc1nc(SCCN2CCOCC2)c2c(=O)n(C)c(=O)n(C)c2n1,inactive,–
COC(=O)c1c(NC(C)=O)csc1C,inactive,–
NC(N)=NS(=O)(=O)c1ccc(N/C=C/C(=O)c2ccc(Cl)c(Cl)c2)cc1,"inconclusive [inhibitor, partial curve, poor fit]",–
CCc1ccccc1NC(=O)Cn1nc(C)c2nn(-c3ccc(Cl)cc3)c(C)c2c1=O,active: 14.6 µM,–
CNC(=S)Nc1cccc(-c2cnc3ccccc3n2)c1,"inconclusive [inhibitor, full curve]",–
CCCNC(=O)CSc1nccn1Cc1ccco1,inactive,–
Oc1ccc(C2CNCc3sccc32)cc1O (centres undefined),active: 20.6 µM,–
Cc1nnc(NC(=O)C(C)Sc2nncn2C)s1 (centres undefined),inactive,–
Cc1ccc(CN(C)C(=O)CN2C(=O)NC3(CCCc4ccccc43)C2=O)c(C)c1 (centres undefined),active: 20.6 µM,–
O=C(c1ccco1)n1nc(NCc2ccccc2)nc1NCc1ccccc1,"inconclusive [inhibitor, partial curve]",–
Cc1ccc(C)c(NC(=S)NCC(c2ccccc2)N(C)C)c1 (centres undefined),"inconclusive [inhibitor, single point]",–
CC(C)(C)Oc1ncc(Br)c(OC(C)(C)C)n1,inactive,–
CC(C)Cn1c2ccccc2c2cc(C(=O)O)ccc21,–,inconclusive: -4.08% [inhibitor]
COc1ccc(CC(C)Nc2ccccc2F)cc1 (centres undefined),inactive,–
Cc1ccc(-n2nc(C(=O)N(C)c3ccccc3Cl)c3c4ccccc4n(C)c3c2=O)cc1,active: 13 µM,–
COCCn1c(CN2CCN(C(c3ccccc3)c3ccccc3)CC2)nc2c1c(=O)n(C)c(=O)n2C,active: 16.4 µM,–
O=C(O)CSc1ccn(Cc2ccccc2)c1,–,inconclusive: -35.7% [inhibitor]
Cc1ccc(CNC(=O)c2ccc(N3CCC4(CC3)CC(c3ccccc3)=NO4)c(N)c2)cc1,"inconclusive [inhibitor, full curve]",–
